Among the data in the supplement of paper PMC6206098 are cell viability values, retold here.

± gives the uncertainty stated by the source. Shown are siRNA guide strands that differ only in the seed, positions 2 to 7.

The test system of one data set is M565. Put plainly: cell viability relative to lipid-only control; higher = less toxic. The note with it: concentration: 10 nM; 96 h; Mus musculus.
The next data set has as its system HeyA8. Described as above. The note with it: concentration: 10 nM; 96 h; Homo sapiens.
A further data set relates to H460. The data set is described as above. The note with it: concentration: 10 nM; 96 h; Homo sapiens.
Another data set concerns 3LL. Put plainly: cell viability relative to siNT1 control; HeyA8 human ovarian and H460 human lung cancer; M565 mouse liver and 3LL mouse lung cancer; siNT1 is a non-toxic control siRNA; higher = less toxic. The settings on record: concentration: 10 nM; 96 h; Mus musculus.
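For cell viability relative to lipid-only control in this document: reverse lipid transfection in 384-well plates, in triplicate, of duplexes on a non-toxic 19mer backbone with passenger strand 2′-O-methylated at positions 1 and 2, luminescence viability read-out.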
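For cell viability relative to siNT1 control in this document: Luminescence-based viability of cells reverse transfected in 384-well plates with lipid-complexed siRNAs built on a non-toxic 19mer backbone whose passenger strand carries 2′-O-methyl groups at positions 1 and 2, triplicates.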

As for UACGCAUACAUGUAAACCAAA, the cell viability with M565 was determined as 82.8 ± 32%; in the data set on HeyA8, 27.4 ± 3.2%; in the data set on H460 it was 66.6 ± 11%; in the data set on 3LL, 79.1 ± 5.5%.

In the case of UAUUGCCACAUGUAAACCAAA, the cell viability in the data set on M565 was 34.2 ± 5%; in the data set on HeyA8, 9.26 ± 1.2%; in the data set with H460 it was 18.6 ± 1.4%; with 3LL it was 38.6 ± 4%.

With UGCCAGAACAUGUAAACCAAA, the cell viability stood at 52 ± 7.8% in the data set on M565, 71.1 ± 3.6% with HeyA8, 63.4 ± 4.7% with H460 and 85.1 ± 10% in the data set on 3LL.

Take UUAUCCAACAUGUAAACCAAA: the cell viability in the data set with M565 was 45 ± 4.7%; in the data set on HeyA8 it was 75.2 ± 6%; in the data set on H460, 66.9 ± 4.3%; in the data set on 3LL it was 57.7 ± 7.1%.

In the case of UGGAAAAACAUGUAAACCAAA, the cell viability came out at 87.5 ± 17% with M565, 98.8 ± 6.7% in the data set with HeyA8, 67.9 ± 9.9% in the data set on H460 and 101 ± 16% with 3LL.

For the sequence UCACGUGACAUGUAAACCAAA, the cell viability in the data set on M565 came to 65.4 ± 8.5%; in the data set with HeyA8 it was 85.5 ± 7.4%; with H460, 50.6 ± 1.5%; in the data set with 3LL, 102 ± 15%.

For the sequence UUGGAUCACAUGUAAACCAAA, the cell viability in the data set on M565 amounted to 73.4 ± 5.8%; in the data set with HeyA8, 35.4 ± 3%; in the data set on H460, 38.7 ± 5.6%; with 3LL, 22.2 ± 5.8%.

UUAGGCAACAUGUAAACCAAA: the cell viability worked out at 46.9 ± 5.8% with M565, 77.8 ± 4.5% with HeyA8, 83.2 ± 13% in the data set with H460 and 81.9 ± 5% with 3LL.

UUUCCCAACAUGUAAACCAAA: the cell viability in the data set on M565 is 72.9 ± 9.9%; in the data set on HeyA8, 95.5 ± 2.8%; with H460 it was 74.8 ± 10%; with 3LL it was 82.5 ± 5%.

Regarding UUCGGAGACAUGUAAACCAAA, the cell viability with M565 came out at 49.3 ± 5.7%; with HeyA8 it was 70.6 ± 10%; with H460, 80.9 ± 10%; in the data set with 3LL, 75.5 ± 16%.

As to UUCAAUCACAUGUAAACCAAA, the cell viability with M565 is 91.4 ± 2.5%; in the data set with HeyA8, 65.7 ± 7.5%; in the data set on H460, 60.6 ± 5.7%; in the data set on 3LL, 61.9 ± 13%.

Regarding UGUCCAAACAUGUAAACCAAA, the cell viability in the data set on M565 came to 23.3 ± 1.1%; in the data set with HeyA8, 66.3 ± 2.1%; in the data set on H460, 54.1 ± 4.3%; with 3LL it was 57.8 ± 10%.

In the case of UCCUAGGACAUGUAAACCAAA, the cell viability with M565 amounted to 51.3 ± 3.7%; in the data set on HeyA8, 35.7 ± 1.3%; in the data set on H460 it was 42 ± 2%; in the data set with 3LL, 58.9 ± 18%.

UAACAGAACAUGUAAACCAAA: the cell viability in the data set with M565 came to 70.3 ± 6.2%; in the data set on HeyA8 it was 96.3 ± 2.3%; in the data set with H460 it was 69.8 ± 8%; in the data set on 3LL, 95 ± 11%.

Turning to UCUCUCCACAUGUAAACCAAA, the cell viability is 29.7 ± 6.3% in the data set on M565, 42.3 ± 4.2% in the data set on HeyA8, 21.1 ± 1.1% in the data set on H460 and 64.3 ± 21% in the data set on 3LL.

On to UGACUUAACAUGUAAACCAAA, for which the cell viability was 61.7 ± 16% in the data set with M565, 86.6 ± 5.9% in the data set with HeyA8, 64 ± 9.7% with H460 and 91.9 ± 15% in the data set on 3LL.

For the sequence UGCGUUGACAUGUAAACCAAA, the cell viability with M565 amounted to 88.07 ± 0.81%; with HeyA8 it was 63.7 ± 15%; in the data set with H460, 83 ± 7.7%; with 3LL, 90.3 ± 16%.

As for UACUUUUACAUGUAAACCAAA, the cell viability with M565 worked out at 109 ± 13%; in the data set with HeyA8, 61 ± 1.9%; in the data set with H460, 79.3 ± 12%; in the data set on 3LL, 87.4 ± 4.1%.

Regarding UAAAGCAACAUGUAAACCAAA, the cell viability with M565 was found to be 63.4 ± 9.4%; with HeyA8 it was 95.7 ± 7.4%; in the data set with H460 it was 78.1 ± 9.6%; in the data set on 3LL, 110 ± 8.1%.

As for UAAUCACACAUGUAAACCAAA, the cell viability came to 73.4 ± 11% in the data set with M565, 73.4 ± 10% with HeyA8, 63.4 ± 6.4% with H460 and 98.4 ± 10% with 3LL.

Take UCCAUAUACAUGUAAACCAAA: the cell viability stood at 76.9 ± 14% in the data set on M565, 66.9 ± 5.4% in the data set on HeyA8, 63.6 ± 3.3% in the data set on H460 and 83 ± 12% with 3LL.

In the case of UAUGGUUACAUGUAAACCAAA, the cell viability in the data set with M565 was 94.4 ± 22%; with HeyA8, 93.8 ± 7%; with H460, 70.5 ± 4.8%; in the data set with 3LL, 105 ± 23%.

On to UUCAAAGACAUGUAAACCAAA, for which the cell viability is 101 ± 7.8% with M565, 96.8 ± 9.6% in the data set on HeyA8, 60.9 ± 2.5% with H460 and 101 ± 10% in the data set with 3LL.

Regarding UCUAAUCACAUGUAAACCAAA, the cell viability with M565 is 61.7 ± 15%; in the data set with HeyA8, 80.9 ± 8.3%; in the data set on H460, 53.9 ± 7.6%; in the data set on 3LL, 93.5 ± 14%.

UAACCUAACAUGUAAACCAAA: the cell viability in the data set with M565 turned out to be 75.4 ± 10%; with HeyA8 it was 94.3 ± 7.9%; with H460 it was 71.5 ± 7.1%; with 3LL, 94 ± 8.5%.

UAAUUCGACAUGUAAACCAAA: the cell viability with M565 was found to be 73.2 ± 12%; in the data set on HeyA8, 97 ± 5.9%; in the data set with H460, 106 ± 14%; in the data set with 3LL, 118 ± 3.4%.

As for UGUGUACACAUGUAAACCAAA, the cell viability amounted to 23.4 ± 0.3% in the data set with M565, 43.5 ± 2.1% with HeyA8, 49.3 ± 4.7% with H460 and 45.6 ± 8.1% with 3LL.

Regarding UGCCCGUACAUGUAAACCAAA, the cell viability in the data set with M565 was 60 ± 3.2%; with HeyA8, 57.7 ± 1.6%; in the data set with H460, 77.9 ± 8.9%; with 3LL it was 57.9 ± 5.6%.

For the sequence UUGCUUGACAUGUAAACCAAA, the cell viability turned out to be 92.2 ± 11% in the data set with M565, 70.4 ± 4.2% in the data set with HeyA8, 91.5 ± 16% in the data set with H460 and 53.9 ± 12% in the data set on 3LL.

Turning to UGAGACGACAUGUAAACCAAA, the cell viability in the data set on M565 was found to be 47.4 ± 11%; in the data set on HeyA8 it was 94.1 ± 7.7%; in the data set with H460 it was 59.4 ± 8.8%; in the data set with 3LL, 72.6 ± 14%.

A word on the cell viability: it is a read-out of living cells in per cent, often relative to untreated cells.
